Several values for one entry are separate records, joined by “and”; a condition that tells them apart may be missing. Equal entries are not always repeated. Screen size: about 420,000 compounds; about 64,000 (15%) were called active. The shares of active, inactive and inconclusive entries below differ from those in the screen. Calls come from the whole dose curve; as a rule, active = well fitted inhibition curve with a large enough effect; inconclusive = small, poorly fitted or top-dose-only effect; inactive = flat fitted curve, though single readings scatter. Where the call is inconclusive, the potency comes from a doubtful curve fit.
assay: qHTS for Inhibitors of human tyrosyl-DNA phosphodiesterase 1 (TDP1): qHTS in cells in absence of CPT; details: DT40 Tdp1-/- hTDP1 cells, no CPT, ATP luminescence, 48 h; activity change, negative = growth inhibition: at 46.2 µM (top of the series) unless noted; note: nearly all actives have a fitted effect of over 55% in size
Procedure, shortened: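 Stably hTDP1-transfected Tdp1-null chicken DT40 cells were treated with library compounds minus camptothecin and grown for at least 48 hr at 37 °C, after which cellular ATP was quantified by luminescence.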
% is set by controls: 0 for no effect and ±100 for the full control effect; potency is the fitted concentration of half-maximal effect; tags give direction and shape of the fitted curve.

Question: With COCc1c(C(=O)N2CCC(c3ccccc3)CC2)cnn1-c1nccc(-c2cc(C)sc2C)n1 as the compound, how does the Potency read?
Answer: The Potency was inconclusive: 25.9 µM [inhibitor, partial curve, poor fit].

Question: For COc1cccc(/C=C2\N=C(c3cncc(Br)c3)OC2=O)c1, which Potency is on record?
Answer: Its Potency is active: 23.1 µM.

Question: Which Potency does the source give for CN(C)c1ccc(C=C2C(=O)NC(=S)NC2=O)cc1[N+](=O)[O-] here?
Answer: Its Potency is inconclusive: 29.1 µM [inhibitor, single point].

Question: Which Potency does the source give for C/C(=N\NC(N)=O)c1c(O)n(C)c(=O)n(C)c1=O here?
Answer: The Potency was inconclusive: 20.6 µM [inhibitor, single point].

Question: Which Potency does the source give for c1ccc(CCNc2nc(-c3ccccc3)cs2)cc1 here?
Answer: The Potency was inconclusive: 33.5 µM [inhibitor, single point].

Question: Which Potency does the source give for c1ccc(N=Nc2ccccc2)cc1 here?
Answer: The Potency was “inactive”.

Question: For CN(C)C(=O)Oc1cc(OC(=O)N(C)C)cc(C(O)CNC(C)(C)C)c1 (stereo unspecified), which Potency is on record?
Answer: The Potency was “inactive and inconclusive: 6.51 µM [inhibitor, single point]”.

Question: For NCCc1ccc(O)cc1, which Potency is on record?
Answer: The Potency was inconclusive: 32.6 µM [inhibitor, single point].

Question: Which Potency does the source give for COc1ccc(OC)c(C2C(C#N)=C(N)Oc3c2c(C)nn3-c2ccc(C)cc2)c1 (stereo unspecified) here?
Answer: The Potency was inconclusive: 13 µM [inhibitor, partial curve, poor fit].

Question: For Cc1cccc(C(O)c2ncc(-c3ccccc3Cl)[nH]2)c1C (stereo unspecified), which Potency is on record?
Answer: Its Potency is inconclusive: 29.1 µM [inhibitor, single point].

Question: Which Potency does the source give for CCc1cc(OC)c(C[C@H](C)N)cc1OC here?
Answer: The Potency was inconclusive: 56.6 µM [inhibitor, single point].

Question: For CCOc1cccc(C2NCc3ccccc3-n3cccc32)c1O (stereo unspecified), which Potency is on record?
Answer: Its Potency is inconclusive: 18.4 µM [inhibitor, single point].

Question: Which Potency does the source give for COc1ccccc1CCNC1C2CC3CC(C2)CC1C3 (stereo unspecified) here?
Answer: The Potency was inconclusive: 20.6 µM [inhibitor, single point].

Question: With CCN(CC)S(=O)(=O)N1CCC(C(=O)N2CCC3(CC2)OCCO3)CC1 as the compound, how does the Potency read?
Answer: The Potency was “inactive”.

Question: For CCOC(=O)C1(c2ccccc2)CCN(CCC(=O)Nc2ccc(F)cc2)CC1, which Potency is on record?
Answer: Its Potency is inconclusive: 23.1 µM [inhibitor, single point].

Question: Which Potency does the source give for COc1ccccc1N1C(=O)NC(=O)C2(Cc3cc(C)ccc3N(C)C2)C1=O (stereo unspecified) here?
Answer: The Potency was “inactive”.

Question: Which Potency does the source give for Cc1ccccc1-n1c(-c2ccco2)nc2ccccc2c1=O here?
Answer: The Potency was active: 9.2 µM.

Question: With COC(=O)[C@@]1(C#N)[C@@H]2C=CC(C(C)=O)=CN2[C@@H](C(N)=O)[C@@H]1c1ccc(F)cc1 as the compound, how does the Potency read?
Answer: The Potency was inconclusive: 18.4 µM [inhibitor, single point].

Question: With CC1([N+](=O)[O-])COP(=O)(Nc2cccc(Br)c2)OC1 (stereo unspecified) as the compound, how does the Potency read?
Answer: Its Potency is inconclusive: 9.2 µM [inhibitor, partial curve].

Question: For COc1cccc(C(=O)NCc2nc(-c3cccc(NC(=O)c4ccoc4C)c3)oc2C)c1, which Potency is on record?
Answer: Its Potency is inconclusive: 14.6 µM [inhibitor, partial curve, poor fit].

Question: Which Potency does the source give for Cn1cc(C(=O)C(=O)N[C@H]2CN3CCC2CC3)c2ccccc21 here?
Answer: Its Potency is inconclusive: 16.8 µM [inhibitor, partial curve].

Question: With C[C@@H]1OC(=O)[C@H]2C[C@H]3CCCC[C@@H]3[C@@H](/C=C/[C@H]3CCC[C@H](C)N3C)[C@@H]12 as the compound, how does the Potency read?
Answer: Its Potency is inconclusive: 13 µM [inhibitor, partial curve, poor fit].

Question: With CCOc1cc(/C=N/NC(=O)c2cccs2)ccc1OC(=O)N1CCOCC1 as the compound, how does the Potency read?
Answer: Its Potency is active: 16.4 µM.

Question: Which Potency does the source give for O=C(Nc1ccc(Cl)cc1)Nc1nccs1 here?
Answer: Its Potency is active: 2.91 µM.

Question: With CN1C(=O)/C(=C\c2ccc(N3CCCCCC3)cc2)C(=O)NC1=S as the compound, how does the Potency read?
Answer: Its Potency is inconclusive: 23.1 µM [inhibitor, single point].

Question: Which Potency does the source give for O=C(/C=C/c1ccc(F)cc1)NNC(=O)CCN1CCN(Cc2ccccc2)CC1 here?
Answer: The Potency was inconclusive: 20.6 µM [inhibitor, single point].

Question: For COc1ccc(C(=O)C2CCCN(CC3CCCCC3)C2)cc1OC (stereo unspecified), which Potency is on record?
Answer: Its Potency is inconclusive: 32.6 µM [inhibitor, single point].

Question: Which Potency does the source give for COc1cccc(C(O)c2nc(-c3ccncc3)cs2)c1 (stereo unspecified) here?
Answer: Its Potency is active: 9.2 µM.

Question: Which Potency does the source give for COCC(C)OC(=O)c1c(N)n(Cc2ccco2)c2nc3ccccc3nc12 (stereo unspecified) here?
Answer: Its Potency is inconclusive: 23.1 µM [inhibitor, partial curve].

Question: Which Potency does the source give for O=C(NC1CCCCC1)N1Cc2cc(N3CCCCC3)ccc2-n2nncc2C1 here?
Answer: Its Potency is inconclusive: 29.1 µM [inhibitor, single point].

Question: With Clc1ccccc1CNCCc1c[nH]c2ccccc12 as the compound, how does the Potency read?
Answer: Its Potency is inconclusive: 5.17 µM [inhibitor, full curve].

Question: Which Potency does the source give for COc1ccc2c(c1)c(=O)c(C(=O)c1ccc(Cl)cc1)cn2CC(=O)Nc1ccc2c(c1)OCCO2 here?
Answer: Its Potency is active: 20.6 µM.

Question: For O=C1NC(=O)C(C/C=C/c2ccccc2)C(=O)N1, which Potency is on record?
Answer: Its Potency is inconclusive: 1.84 µM [inhibitor, partial curve, poor fit].

Question: For COc1ccccc1NC(=O)COC(=O)c1cn(C)c2ccccc12, which Potency is on record?
Answer: The Potency was inconclusive: 29.1 µM [inhibitor, single point].

Question: With COc1nc2ccccc2c(=O)n1-c1ccc(Cl)cc1 as the compound, how does the Potency read?
Answer: The Potency was “inactive”.

Question: Which Potency does the source give for Cc1nn(-c2ccccc2)c2c1CC1(C(=O)N(C)C(=O)N(C)C1=O)C1CCCCN21 (stereo unspecified) here?
Answer: The Potency was inconclusive: 20.6 µM [inhibitor, single point].

Question: With CC(C)(C)C(=O)O[C@H]1CC[C@@]2(C)C(=CC(=O)C3C2CC[C@]2(C)C(=O)[C@@H](F)CC32)C1 (stereo partly specified) as the compound, how does the Potency read?
Answer: Its Potency is inconclusive: 18.4 µM [inhibitor, single point].

Question: With O=C(CSc1nnc2c3c4c(sc3ncn12)CCCC4)NCc1ccco1 as the compound, how does the Potency read?
Answer: The Potency was inconclusive: 11.6 µM [inhibitor, partial curve, poor fit].

Question: With CC(C)C[C@H]1CN(CCCC[C@H]2CNC(=O)C(=O)N2CCC2CCCCC2)C(=O)C(=O)N1CCC1CCCCC1 as the compound, how does the Potency read?
Answer: The Potency was active: 20.6 µM.

Question: For Cc1ccc2[nH]c3c(c2c1)CN(C(=O)CN1C[C@H]2C[C@@H](C1)c1cccc(=O)n1C2)CC3, which Potency is on record?
Answer: Its Potency is “inactive”.

Question: Which Potency does the source give for Cc1nn(Cc2ccccc2)c(Cl)c1C(=O)OCC(=O)Nc1cccc2ccccc12 here?
Answer: The Potency was inconclusive: 23.1 µM [inhibitor, single point].

Question: Which Potency does the source give for COc1ccc(-c2nn(CCC#N)cc2C(=O)Nc2ccccc2Br)cc1[N+](=O)[O-] here?
Answer: The Potency was inconclusive: 20.6 µM [inhibitor, single point].

Question: Which Potency does the source give for COC(=O)C1=C(c2ccc(Cl)c(C(F)(F)F)c2)C[C@@H]2CC[C@H]1N2C(=O)NCCNC(C)=O here?
Answer: Its Potency is inconclusive: 13 µM [inhibitor, single point].

Question: Which Potency does the source give for O=C(COC(=O)c1ccccc1)Nc1ccc(Cl)cc1C(=O)c1ccccc1 here?
Answer: The Potency was inconclusive: 29.1 µM [inhibitor, single point].

Question: For Cc1ccccc1-n1c(/C=C/c2ccccn2)nc2ccccc2c1=O, which Potency is on record?
Answer: The Potency was active: 23.1 µM.

Question: With CCC(C)N1C(=O)/C(=C/c2ccc3c(c2)CCN3CCCCl)C(=O)NC1=S (stereo unspecified) as the compound, how does the Potency read?
Answer: Its Potency is inconclusive: 18.4 µM [inhibitor, single point].

Question: For Cc1ccc(-c2nc3cc(C)c(Br)c(C)n3c2Cc2cccc(Cl)c2)cc1, which Potency is on record?
Answer: The Potency was inconclusive: 16.4 µM [inhibitor, partial curve, poor fit].

Question: Which activity change, negative = growth inhibition does the source give for COC(=O)C1=C(c2ccc(F)cc2F)C[C@@H]2CC[C@H]1N2C(=O)NCCOc1ccccc1Cl here?
Answer: Its activity change, negative = growth inhibition is inconclusive: -33.7% [inhibitor].

Question: With CCc1ccccc1NC(=O)C1CCCN(c2ncnc3onc(C)c23)C1 (stereo unspecified) as the compound, how does the Potency read?
Answer: Its Potency is active: 9.2 µM.

Question: With CC1CCCC(C)N1c1nnc(NC(=O)Cn2c(=O)oc3ccccc32)s1 (stereo unspecified) as the compound, how does the Potency read?
Answer: The Potency was active: 13 µM.

Question: For CCCCCCCCCCCCCCCC(=O)O[C@@H]1[C@@H](O)[C@@H](O)[C@@H]([C@H](NC(=O)[C@@H]2C[C@@H](CCC)CN2C)[C@H](C)Cl)O[C@@H]1SC, which Potency is on record?
Answer: The Potency was inconclusive: 29.9 µM [inhibitor, single point].

Question: For CSCCC(c1nnnn1-c1c(C)cccc1C)N1CCC2(CC1)C(=O)NCN2c1ccccc1 (stereo unspecified), which Potency is on record?
Answer: The Potency was inconclusive: 29.1 µM [inhibitor, single point].

Question: Which activity change, negative = growth inhibition does the source give for CN(C)c1ccc(P(=S)(N(C)C)N(C)C)cc1 here?
Answer: The activity change, negative = growth inhibition was inconclusive: -30.8% [inhibitor].

Question: Which Potency does the source give for O=C(Cc1ccccc1)Oc1ccc([N+](=O)[O-])cc1 here?
Answer: The Potency was “inactive”.

Question: With COC(=O)C1=C(c2ccc(F)cc2F)C[C@@H]2CC[C@H]1N2C(=O)NCc1ccc2c(c1)OCO2 as the compound, how does the Potency read?
Answer: Its Potency is inconclusive: 13 µM [inhibitor, partial curve].

Question: For Cc1ccc(-c2cc(-c3ccc(C)cc3)[n+](C)o2)cc1, which Potency is on record?
Answer: The Potency was active: 0.326 µM.

Question: For CC(C(=O)O)N(C(=O)c1ccccc1)c1ccc(F)c(Cl)c1 (stereo unspecified), which Potency is on record?
Answer: Its Potency is “inactive”.

Question: Which Potency does the source give for CC(C)C[C@H]1CN([C@@H](CC(C)C)CN2CCCC2CN2C(=S)NC[C@@H]2Cc2ccc(O)cc2)C(=S)N1CC1CCCCCC1 (stereo partly specified) here?
Answer: Its Potency is active: 18.4 µM.

Question: Which Potency does the source give for COC(=O)C1=C(c2ccc(S(C)(=O)=O)cc2)C[C@@H]2CC[C@H]1N2C(=O)NCCS(C)=O (stereo partly specified) here?
Answer: The Potency was “inactive”.

Question: For O=C1NC(=O)N(c2ccccc2F)C(=O)/C1=C/c1ccc(Sc2nc3ccccc3[nH]2)o1, which Potency is on record?
Answer: The Potency was inconclusive: 32.6 µM [inhibitor, single point].

Question: Which Potency does the source give for CSc1ncc(/C=C2/C(=O)NC(=O)N(c3ccc(C(C)C)cc3)C2=O)cn1 here?
Answer: Its Potency is “inactive”.

Question: With CCOC(=O)c1ccc(NC(c2ccc(N(C)C)cc2)P(=O)(OC(C)C)OC(C)C)cc1 (stereo unspecified) as the compound, how does the Potency read?
Answer: Its Potency is active: 29.1 µM.

Question: With O=C(Nc1nccs1)C(Cl)(Cl)Cl as the compound, how does the Potency read?
Answer: The Potency was “inactive”.

Question: For CCC1C2Cc3ccc(O)cc3C1(CC)CCN2C (stereo unspecified), which Potency is on record?
Answer: Its Potency is “inactive”.

Question: With CC(=O)O[C@@H]1/C=C/[C@](C)(O)C[C@@H](C)C/C=C/[C@H]2[C@@H]3O[C@]3(C)[C@@H](C)[C@H]3[C@H](Cc4ccccc4)NC(=O)[C@@]312 as the compound, how does the Potency read?
Answer: The Potency was active: 0.461 µM.

Question: With CCOC(=O)[C@]12Cc3ccccc3[C@H]1N(CCC(=O)OC)C(=O)c1ccccc12 as the compound, how does the Potency read?
Answer: Its Potency is active: 16.4 µM.
